The supplement of paper PMC9262897, “Low-cost anti-mycobacterial drug discovery using engineered E. coli” (Nature Communications, 2022)
Further values from the same series stand in other lists.

Tests used:
E. coli TESEC Mtb Alr = assay: growth (OD600 after 10 h, mean); higher = more growth
Method: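 TESEC Mtb Alr E. coli grown in a two-dimensional dilution series of drug (µM) and arabinose (12 to 1e8 nM). Growth is read as OD600 after 10 h; values are means of 3 biological replicates.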

[1] = test system: E. coli wild-type control; assay: growth (OD600 after 10 h); higher = more growth
Method: (§1)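 Chemical-genetic validation profiles: TESEC strains (Mtb Asd or DapB, arabinose-inducible) or the wild-type control grown in a two-dimensional dilution series of drug (µM) and arabinose. Growth is read as OD600 after 10 h in triplicate.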

[2] = test system: E. coli TESEC strain (Mtb target enzyme); assay: growth (OD600 after 10 h); higher = more growth
Method: as §1

N[C@@H]1CONC1=O [D-cycloserine]
growth, E. coli TESEC Mtb Alr
Conditions	drug 125 µM	drug 250 µM	drug 500 µM	drug 1000 µM
arabinose 12 nM	0.0481	0.048	0.0547	0.0492
arabinose 24 nM	0.0498	0.0483	0.0552	0.0498
arabinose 48 nM	0.0501	0.0489	0.0483	0.0485
arabinose 95 nM	0.049	0.0486	0.0499	0.0486
arabinose 191 nM	0.0483	0.049	0.0489	0.0478
arabinose 381 nM	0.0506	0.0478	0.0488	0.0496
arabinose 763 nM	0.048	0.0485	0.0482	0.0488
arabinose 1526 nM	–	0.0481	0.049	0.0489
arabinose 3052 nM	–	0.0483	0.0478	0.0531
arabinose 6104 nM	–	0.0487	0.0487	0.0485
arabinose 12207 nM	–	0.0477	0.0471	0.0479
arabinose 24414 nM	0.313	0.0498	0.0486	0.0501
arabinose 48828 nM	0.307	0.068	0.0542	0.054
arabinose 97656 nM	0.319	0.0894	0.0525	0.0532
arabinose 195312 nM	0.33	0.125	0.0549	0.053
arabinose 390625 nM	0.336	0.163	0.061	0.0573
arabinose 781250 nM	0.319	0.194	0.0708	0.0575
arabinose 1562500 nM	0.294	0.207	0.0841	0.0595
arabinose 3125000 nM	0.273	0.202	0.0989	0.0624
arabinose 6250000 nM	0.254	0.207	0.122	0.0658
arabinose 12500000 nM	0.248	0.212	0.144	0.0704
arabinose 25000000 nM	0.234	0.221	0.166	0.0771
arabinose 50000000 nM	0.205	0.207	0.182	0.0986
arabinose 100000000 nM	0.158	0.169	0.157	0.125

CC/C(=C(/CC)c1ccc(O)cc1)c1ccc(O)cc1 [Diethylstilbestrol] (TESEC target enzyme: Mtb Asd)
growth
Conditions	drug 3.5 µM	drug 7.8 µM	drug 17.6 µM	drug 39.5 µM	drug 88.9 µM	drug 200 µM
[1], arabinose 15560 nM	–	–	–	–	0.0914	0.0668
[1], arabinose 28008 nM	–	–	–	–	0.0574	0.0592
[1], arabinose 50414 nM	–	–	–	–	0.0853	0.088
[1], arabinose 90744 nM	–	–	–	–	0.09	0.0748
[1], arabinose 163340 nM	–	–	–	–	0.104	0.053
[1], arabinose 294012 nM	–	–	–	–	0.0493	0.103
[1], arabinose 529221 nM	–	–	–	–	0.104	0.104
[1], arabinose 952599 nM	–	–	–	–	–	0.102
[1], arabinose 1714678 nM	–	–	–	–	–	0.0773
[1], arabinose 3086420 nM	–	–	–	–	–	0.0894
[1], arabinose 5555556 nM	–	–	–	–	–	0.0665
[1], arabinose 10000000 nM	–	–	–	–	0.0798	0.084
[2], arabinose 15560 nM	0.169	0.0885	0.107	0.0526	0.0483	0.0579
[2], arabinose 28008 nM	0.182	0.108	0.0596	0.0727	0.0757	0.0675
[2], arabinose 50414 nM	0.168	0.119	0.0598	0.0487	0.079	0.0583
[2], arabinose 90744 nM	0.19	0.115	0.0706	0.0471	0.0596	0.0717
[2], arabinose 163340 nM	0.19	0.151	0.0771	0.106	0.0785	0.0511
[2], arabinose 294012 nM	0.206	0.171	0.127	0.0463	0.0716	0.0542
[2], arabinose 529221 nM	0.201	0.149	0.156	0.0571	0.0743	0.0619
[2], arabinose 952599 nM	0.221	0.202	0.11	0.083	0.0474	0.0584
[2], arabinose 1714678 nM	0.196	0.193	0.0842	0.0503	0.049	0.0483
[2], arabinose 3086420 nM	0.204	0.184	0.0877	0.105	0.081	0.0783
[2], arabinose 5555556 nM	0.198	0.186	0.0844	0.0563	0.0535	0.0772
[2], arabinose 10000000 nM	0.169	0.162	0.109	0.0863	0.0659	0.0545

N=C(N)c1ccc(OCCCCCOc2ccc(C(=N)N)cc2)cc1 [Pentamidine] (TESEC target enzyme: Mtb DapB)
growth
Conditions	drug 3.5 µM	drug 7.8 µM	drug 17.6 µM	drug 39.5 µM	drug 88.9 µM	drug 200 µM
[1], arabinose 15560 nM	–	–	–	–	0.185	0.066
[1], arabinose 28008 nM	–	–	–	–	0.189	0.0558
[1], arabinose 50414 nM	–	–	–	–	0.155	0.0573
[1], arabinose 90744 nM	–	–	–	–	0.21	0.0557
[1], arabinose 163340 nM	–	–	–	–	0.185	0.0557
[1], arabinose 294012 nM	–	–	–	–	0.198	0.0579
[1], arabinose 529221 nM	–	–	–	–	0.178	0.0639
[1], arabinose 952599 nM	–	–	–	–	–	0.053
[1], arabinose 1714678 nM	–	–	–	–	–	0.0555
[1], arabinose 3086420 nM	–	–	–	–	–	0.0637
[1], arabinose 5555556 nM	–	–	–	–	–	0.053
[1], arabinose 10000000 nM	–	–	–	–	0.159	0.0674
[2], arabinose 15560 nM	0.102	0.137	0.0988	0.139	0.066	0.0484
[2], arabinose 28008 nM	0.185	0.171	0.146	0.103	0.0733	0.0485
[2], arabinose 50414 nM	0.198	0.167	0.16	0.106	0.056	0.0472
[2], arabinose 90744 nM	0.183	0.183	0.157	0.175	0.056	0.0495
[2], arabinose 163340 nM	0.216	0.189	0.184	0.157	0.0582	0.0488
[2], arabinose 294012 nM	0.239	0.216	0.209	0.173	0.0684	0.0485
[2], arabinose 529221 nM	0.251	0.248	0.218	0.162	0.0683	0.0494
[2], arabinose 952599 nM	0.252	0.192	0.18	0.202	0.102	0.05
[2], arabinose 1714678 nM	0.184	0.23	0.214	0.198	0.127	0.0486
[2], arabinose 3086420 nM	0.154	0.136	0.139	0.17	0.15	0.0575
[2], arabinose 5555556 nM	0.138	0.134	0.14	0.13	0.142	0.053
[2], arabinose 10000000 nM	0.146	0.127	0.155	0.141	0.143	0.0592

Nc1nc2ccc(OC(F)(F)F)cc2s1 [Riluzole] (TESEC target enzyme: Mtb Asd)
growth
Conditions	drug 8.7 µM	drug 19.5 µM	drug 43.9 µM	drug 98.8 µM	drug 222.2 µM	drug 500 µM
[1], arabinose 15560 nM	–	–	–	–	0.123	0.0661
[1], arabinose 28008 nM	–	–	–	–	0.118	0.04837
[1], arabinose 50414 nM	–	–	–	–	0.123	0.0606
[1], arabinose 90744 nM	–	–	–	–	0.127	0.0496
[1], arabinose 163340 nM	–	–	–	–	0.111	0.0625
[1], arabinose 294012 nM	–	–	–	–	0.114	0.06
[1], arabinose 529221 nM	–	–	–	–	0.113	0.117
[1], arabinose 952599 nM	–	–	–	–	–	0.0654
[1], arabinose 1714678 nM	–	–	–	–	–	0.0483
[1], arabinose 3086420 nM	–	–	–	–	–	0.0773
[1], arabinose 5555556 nM	–	–	–	–	–	0.0675
[1], arabinose 10000000 nM	–	–	–	–	0.149	0.0863
[2], arabinose 15560 nM	0.158	0.176	0.157	0.153	0.173	0.172
[2], arabinose 28008 nM	0.138	0.299	0.135	0.147	0.174	0.146
[2], arabinose 50414 nM	0.126	0.153	0.151	0.148	0.178	0.132
[2], arabinose 90744 nM	0.163	0.148	0.121	0.127	0.189	0.169
[2], arabinose 163340 nM	0.18	0.162	0.145	0.147	0.168	0.173
[2], arabinose 294012 nM	0.225	0.167	0.17	0.162	0.167	0.169
[2], arabinose 529221 nM	0.166	0.161	0.185	0.155	0.223	0.222
[2], arabinose 952599 nM	0.266	0.256	0.225	0.176	0.146	0.1619
[2], arabinose 1714678 nM	0.284	0.314	0.26	0.172	0.151	0.164
[2], arabinose 3086420 nM	0.241	0.355	0.248	0.235	0.173	0.158
[2], arabinose 5555556 nM	0.208	0.261	0.236	0.266	0.177	0.152
[2], arabinose 10000000 nM	0.217	0.213	0.194	0.254	0.181	0.156
